The whole screen tested about 410,000 compounds, of which about 6,400 (1.6%) were called active. The inconclusive results got no clear call from the source; some entries with a clear call stand among them for comparison. The call rests on the fitted dose curve; in most records, active means well fitted inhibition curve with a large enough effect; inconclusive means small, poorly fitted or top-dose-only effect; inactive means no such curve, though single readings can be large or run the other way. No potency is given beside an inconclusive call; the fits are too rough.
target: Glucagon-like peptide 1 receptor (Homo sapiens) (UniProt P43220); assay: qHTS of GLP-1 Receptor Inverse Agonists (Inhibition Mode); conditions: HEK293 GLP-1R CRE-luciferase, luminescence, 24 h, GLP-1R form is constitutively active; activity change, negative = inhibition: at 38.3 µM (top of the series) unless noted; further: nearly all actives have a fitted effect of over 55% in size
Summary of the method: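 Seeding at 200 cells/uL, 12 h culture, 24 hr compound treatment, then luciferase reagent and a luminescence read; cells are HEK293 stably expressing a constitutively active GLP-1R plus cAMP-responsive luciferase.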
On the % scale 0 is the no-effect control and ±100 the full control effect; potency means the concentration at half of the fitted maximal effect; tags describe the fitted curve by direction and shape.

Sequence of UniProt P43220 (P43220 whole entry, looked up): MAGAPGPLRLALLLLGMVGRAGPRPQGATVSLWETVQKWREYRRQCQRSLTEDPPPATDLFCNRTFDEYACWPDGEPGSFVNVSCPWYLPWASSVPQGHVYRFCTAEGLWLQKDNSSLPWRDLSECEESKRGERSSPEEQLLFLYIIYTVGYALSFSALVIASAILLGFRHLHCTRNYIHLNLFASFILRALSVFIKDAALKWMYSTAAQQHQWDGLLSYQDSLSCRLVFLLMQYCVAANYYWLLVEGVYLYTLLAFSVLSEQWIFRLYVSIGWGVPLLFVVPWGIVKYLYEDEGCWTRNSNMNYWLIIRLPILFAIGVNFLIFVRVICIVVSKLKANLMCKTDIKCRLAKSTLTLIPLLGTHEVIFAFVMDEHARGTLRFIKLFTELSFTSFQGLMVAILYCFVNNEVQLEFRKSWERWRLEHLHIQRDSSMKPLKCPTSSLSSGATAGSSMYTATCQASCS

SMILES | activity change, negative = inhibition | Potency
O=C(CSc1ncnc2c1nnn2Cc1ccccc1)NC1CCCC1 | inactive: -17.4% | 
CC(C)Nc1ncnc2c1cnn2Cc1ccccc1Cl |  | inconclusive [inhibitor, partial curve, poor fit]
Cc1ccc(Nc2cc(C)nc3c(C)ccc([N+](=O)[O-])c23)cc1 |  | inconclusive [inhibitor, partial curve, poor fit]
COc1ccc(-c2csc(NCc3ccco3)n2)cc1 |  | inconclusive [inhibitor, single point]
COc1ccc(N(C(=O)c2cccnc2)S(=O)(=O)c2ccc(Cl)cc2)cc1 |  | inconclusive [inhibitor, single point]
COc1ccccc1CCNS(=O)(=O)c1ccc(N2CCCCS2(=O)=O)cc1 |  | inconclusive [inhibitor, single point]
COc1ccc(NC(=O)c2ccc3c(c2)OCCO3)cc1OC |  | inconclusive [inhibitor, single point]
CCC/C(=C1/c2ccccc2C(=O)N1c1ccccc1)c1ccc2c(c1)OCCO2 |  | inconclusive [inhibitor, partial curve, poor fit]
O=C(CCc1ccccc1)N/N=C/c1cc(Br)ccc1O |  | inconclusive [inhibitor, full curve]
COCC(C)NC(=O)c1cc(-c2cccc(OC)c2)on1 (stereo not drawn) | inactive: 18.9% | 
CCOc1ccc(-c2c(C(=O)N/N=C/c3sccc3C)nnn2-c2nonc2N)cc1 |  | inconclusive [inhibitor, partial curve]
OCc1ccc(-c2cccc3nccn23)cc1 | inactive: 12.1% | 
COc1cccc(Nc2nc3ccc(C)cc3nc2-n2nc(C)cc2C)c1 | inactive: 3.12% | 
CCn1c(SCc2ccccc2)nc2cc(OC)c(OC)cc2c1=O |  | inconclusive [inhibitor, single point]
Cc1nn2cc(-c3ccc(-c4ccccc4)cc3)nc2s1 | inactive: -7.83% | 
COc1ccc(C(=O)O/N=C(\N)Cc2ccc(Cl)c(Cl)c2)cc1OC |  | inconclusive [inhibitor, partial curve, poor fit]
O=C(NCCN1CCN(c2ccccc2)CC1)C1CCN(S(=O)(=O)c2cccc3nonc23)CC1 | inactive: 2.15% | 
CCN1/C(=C/C=C/c2sc3ccccc3[n+]2CC)Sc2ccccc21 |  | inconclusive [inhibitor, partial curve, poor fit]
Cc1ccc(C2=NNC(c3ccc(Cl)cc3)=Nc3ccccc32)o1 |  | active: 7.94 µM
COP(=O)(OC)c1nc(-c2cccc3ccccc23)oc1NCc1ccccc1 |  | inconclusive [inhibitor, single point]
Cc1ccccc1N(CC(=O)NCCc1ccccc1)C(=O)CCC(=O)Nc1ccccn1 |  | inconclusive [inhibitor, partial curve, poor fit]

SMILES | activity change, negative = inhibition | Potency
COc1ccc(CN2COc3ccc4c(-c5ccccc5)cc(=O)oc4c3C2)cc1OC | inactive: 1.25% | 
O=C(N/N=C/c1c[nH]c2ccccc12)c1ccccc1 | inactive: 14% | 
O=C(CSCc1cnn(-c2ccccc2)c1-n1cccc1)NCc1cccnc1 |  | inconclusive [inhibitor, single point]
CC(C)(C)C(=O)Nc1nc(-c2ccc3c(c2)OCO3)cs1 |  | active: 10 µM
COC(=O)c1ccc(NC2=CC(=O)CC(C)(C)C2)cc1 |  | inconclusive [inhibitor, single point]
C[C@H](NC(=O)c1nc[nH]c1C(=O)N[C@@H](Cc1ccccc1)C(=O)OCc1ccccc1)C(=O)OC(C)(C)C |  | inconclusive [inhibitor, single point]
CCn1c(=O)cc(OCC(=O)N2CCN(c3ccc(F)cc3)CC2)c2ccccc21 |  | inconclusive [inhibitor, single point]
Cc1ccc(S(=O)(=O)N2CCN(C(=O)CSCc3ccc(C(C)C)cc3)CC2)cc1 |  | inconclusive [inhibitor, single point]
O=C(Cn1nc(-c2ccc(Cl)cc2)ccc1=O)N1CCN(c2ccccc2)CC1 |  | inconclusive [inhibitor, single point]
Cc1ccc(CN2CCSc3ccc(C(=O)NCC4CCCO4)cc32)cc1 (stereo not drawn) |  | inconclusive [inhibitor, full curve]
CCCC(O)(c1ccc(Br)cc1)C(CN1CCOCC1)c1ccc(Cl)cc1 (stereo not drawn) |  | inconclusive [inhibitor, full curve, poor fit]
COc1ccccc1N(C)S(=O)(=O)c1ccc(C(=O)NCCc2ccc(F)cc2)cc1 |  | inconclusive [inhibitor, partial curve, poor fit]
COc1ccc(-n2nc([N+](=O)[O-])c(=NCCc3cccc(C)c3)n2O)cc1 |  | inconclusive [inhibitor, single point]
O=C(c1ccc(OC2CCN(C/C=C/c3ccccc3)CC2)cc1)N1CCCCC1 |  | inconclusive [inhibitor, partial curve, poor fit]
O=C(c1ccco1)N1CCN(C(=O)c2cc(-c3ccncc3)nc3ccc(Br)cc23)CC1 |  | inconclusive [inhibitor, partial curve]
O=C(c1cc(-c2ccc(O)cc2)on1)N1CCN(c2ccccc2)CC1 |  | inconclusive [inhibitor, partial curve, poor fit]
CC(NC(=O)Cn1cc(C(=O)C2CC2)c2ccccc21)c1ccccc1 (stereo not drawn) |  | inconclusive [inhibitor, single point]
COc1ccc(NC(=O)CN(C)C(=O)/C=C/c2cn(-c3ccccc3)nc2-c2ccc(C)cc2)cc1 |  | inconclusive [inhibitor, partial curve, poor fit]
COc1ccc(C)cc1S(=O)(=O)Nc1cccc(-c2ccc(N3CCCCCC3)nn2)c1 |  | inconclusive [inhibitor, single point]
COc1cccc(NC(=O)c2cccc(N3C(=O)C4C5C=CC(C5)C4C3=O)c2)c1 (stereo not drawn) |  | inconclusive [inhibitor, partial curve, poor fit]
COc1cccc(C(=O)Nc2sc(C(C)C)cc2C(N)=O)c1OC |  | inconclusive [inhibitor, single point]

SMILES | activity change, negative = inhibition | Potency
CCOC(=O)Nc1sc(C(=O)N(CC)CC)c(C)c1C(=O)OCC |  | inconclusive [inhibitor, single point]
C/C(=N\Oc1cccc(F)n1)c1ccc(Cl)cc1Cl |  | inconclusive [inhibitor, single point]
O=C(Cn1cnc([N+](=O)[O-])n1)N/N=C/c1ccccc1O |  | inconclusive [inhibitor, single point]
CCOc1cccc(C(=O)Nc2nnc(-c3ccco3)s2)c1 |  | inconclusive [inhibitor, partial curve]
CC(=O)Nc1ccc(NC(=O)C(=O)NCC(c2ccco2)N2CCc3ccccc3C2)cc1 (stereo not drawn) |  | inconclusive [inhibitor, full curve]
Cn1c(NC(=O)c2ccccc2NC(=O)C(C)(C)C)nc2ccccc21 |  | inconclusive [inhibitor, single point]
O=S1(=O)CCOC[C@H](Cc2ccccc2)N1Cc1cccc(Cl)c1 |  | inconclusive [inhibitor, single point]
CC[C@H]1c2[nH]c3ccccc3c2C[C@H]2C(=O)N(c3ccc(F)cc3)C(=O)N21 |  | inconclusive [inhibitor, partial curve, poor fit]
Cn1c(=O)n(CCCc2ccccc2)c(=O)c2c1nc1n2CCN1c1ccc(F)cc1 | inactive: -12.1% | 
COc1ccc(CCC(=O)N(C)CC(=O)Nc2ccc(Cl)c(C(F)(F)F)c2)cc1 |  | inconclusive [inhibitor, partial curve, poor fit]
COc1ccc(NC(=O)c2ccc(Cl)c(S(=O)(=O)N3CCc4ccccc4C3)c2)cn1 |  | inconclusive [inhibitor, single point]
Cc1onc(C(=O)NN)c1C(=O)N1CCN(C(c2ccccc2)c2ccccc2)CC1 |  | inconclusive [inhibitor, partial curve, poor fit]
CC(C)CCNc1nc(N)c([N+](=O)[O-])c(NCC2CCCO2)n1 (stereo not drawn) |  | inconclusive [inhibitor, partial curve, poor fit]
C/C(=N\NC(=O)c1nnn(-c2nonc2N)c1C)c1ccc(OCc2ccccc2)cc1 | inactive: -1.14% | 
COc1cc([C@H]2[C@@H]3CCCC[C@]3(O)CCN2Cc2ccccc2F)ccc1O |  | inconclusive [inhibitor, single point]
COc1ccc(C)cc1C(=O)CCC(=O)N1CCN(c2ccccc2F)CC1 |  | inconclusive [inhibitor, single point]
Cc1cccc2nc(CSc3nnc(N)s3)cn12 | inactive: 6.06% | 
O=S1(=O)C=C(Sc2nnc(-c3ccccc3)o2)c2ccccc21 | inactive: -2.41% | 
O=S(=O)(Nc1cccc(-c2ccc(N3CCCCCC3)nn2)c1)c1ccc(C(F)(F)F)cc1 |  | inconclusive [inhibitor, partial curve, poor fit]
C(=C\c1ccccc1)/CN1CCN(C(c2cccc3ccccc23)c2nnnn2Cc2ccccc2)CC1 (stereo not drawn) |  | inconclusive [inhibitor, single point]
CCc1ccc2c(c1)NC(=O)C2(C)Cc1ccccc1OC (stereo not drawn) |  | inconclusive [inhibitor, single point]

Reference: PubChem BioAssay AID624417 (National Center for Advancing Translational Sciences (NCATS), 2012)
